These are yes or no findings as the source states them, for the method shown. Binding seen in cells or lysates may run through a third protein. Some entries that bind do so weakly or less than the wild type. For part of these data: Tags and fused reporters may be left off the sequences shown. One block for each molecule: values may come before it.
Key:
[1] = target: T1, MDGA2-GFP (full-length human MDGA2 in pEGFP-N1) (human) (UniProt Q7Z553); assay: co-IP; HEK293T cells co-transfected with MDGA2-GFP and Myc-tagged RPS23RG1 constructs; IP with IgG and antibodies against GFP or Myc; immunoblotting
T1 sequence: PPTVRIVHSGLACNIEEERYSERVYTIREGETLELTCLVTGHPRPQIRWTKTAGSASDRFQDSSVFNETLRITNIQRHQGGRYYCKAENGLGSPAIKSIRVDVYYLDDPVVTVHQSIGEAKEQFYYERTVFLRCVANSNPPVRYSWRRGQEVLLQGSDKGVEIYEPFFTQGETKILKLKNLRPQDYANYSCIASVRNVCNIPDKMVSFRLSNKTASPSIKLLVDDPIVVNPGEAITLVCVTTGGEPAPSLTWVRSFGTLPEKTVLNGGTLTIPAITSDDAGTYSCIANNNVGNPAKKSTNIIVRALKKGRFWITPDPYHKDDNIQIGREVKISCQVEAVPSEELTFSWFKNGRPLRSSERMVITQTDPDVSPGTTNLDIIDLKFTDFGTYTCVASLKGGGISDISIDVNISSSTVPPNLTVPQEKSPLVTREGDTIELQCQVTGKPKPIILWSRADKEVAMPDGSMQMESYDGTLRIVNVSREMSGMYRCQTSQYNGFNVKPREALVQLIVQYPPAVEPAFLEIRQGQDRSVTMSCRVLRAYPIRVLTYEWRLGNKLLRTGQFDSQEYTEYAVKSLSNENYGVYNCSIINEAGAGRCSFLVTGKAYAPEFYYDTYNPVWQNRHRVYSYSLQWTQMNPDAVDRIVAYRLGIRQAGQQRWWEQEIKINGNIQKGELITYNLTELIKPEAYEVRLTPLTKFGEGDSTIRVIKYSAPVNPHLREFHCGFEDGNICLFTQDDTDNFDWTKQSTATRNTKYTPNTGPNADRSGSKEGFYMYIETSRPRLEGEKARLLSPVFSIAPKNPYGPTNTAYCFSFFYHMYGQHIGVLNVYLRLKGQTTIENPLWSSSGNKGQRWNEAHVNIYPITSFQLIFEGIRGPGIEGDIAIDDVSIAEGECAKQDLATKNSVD

The chains behind the UniProt entries cited, without tags or fusion partners. Where a name states a change or a piece, a line headed by the entry shows the natural chain unless it says otherwise. A line that says so, or that is headed by a name, gives the form on record, which may keep a tag or linker. Residues count along the entry.
UniProt Q99523, residues 78-831: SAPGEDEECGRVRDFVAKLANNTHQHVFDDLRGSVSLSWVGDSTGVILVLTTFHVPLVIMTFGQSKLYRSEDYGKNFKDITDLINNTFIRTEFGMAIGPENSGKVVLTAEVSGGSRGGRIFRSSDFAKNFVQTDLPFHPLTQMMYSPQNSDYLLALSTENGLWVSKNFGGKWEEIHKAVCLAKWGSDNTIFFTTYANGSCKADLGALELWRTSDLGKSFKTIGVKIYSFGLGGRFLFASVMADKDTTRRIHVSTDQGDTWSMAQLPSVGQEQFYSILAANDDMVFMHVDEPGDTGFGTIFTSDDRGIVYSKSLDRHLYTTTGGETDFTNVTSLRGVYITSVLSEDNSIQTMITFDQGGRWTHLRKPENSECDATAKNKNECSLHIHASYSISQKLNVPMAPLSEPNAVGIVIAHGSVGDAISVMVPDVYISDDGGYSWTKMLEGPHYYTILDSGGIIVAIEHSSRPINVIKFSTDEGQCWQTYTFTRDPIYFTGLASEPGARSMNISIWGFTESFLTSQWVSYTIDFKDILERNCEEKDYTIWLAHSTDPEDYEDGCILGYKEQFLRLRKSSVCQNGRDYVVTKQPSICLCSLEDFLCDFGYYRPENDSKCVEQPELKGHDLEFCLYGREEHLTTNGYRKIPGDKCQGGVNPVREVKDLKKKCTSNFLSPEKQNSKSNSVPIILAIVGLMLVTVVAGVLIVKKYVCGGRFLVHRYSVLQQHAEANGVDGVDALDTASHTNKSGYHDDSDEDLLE
UniProt Q6PHU5, residues 74-825: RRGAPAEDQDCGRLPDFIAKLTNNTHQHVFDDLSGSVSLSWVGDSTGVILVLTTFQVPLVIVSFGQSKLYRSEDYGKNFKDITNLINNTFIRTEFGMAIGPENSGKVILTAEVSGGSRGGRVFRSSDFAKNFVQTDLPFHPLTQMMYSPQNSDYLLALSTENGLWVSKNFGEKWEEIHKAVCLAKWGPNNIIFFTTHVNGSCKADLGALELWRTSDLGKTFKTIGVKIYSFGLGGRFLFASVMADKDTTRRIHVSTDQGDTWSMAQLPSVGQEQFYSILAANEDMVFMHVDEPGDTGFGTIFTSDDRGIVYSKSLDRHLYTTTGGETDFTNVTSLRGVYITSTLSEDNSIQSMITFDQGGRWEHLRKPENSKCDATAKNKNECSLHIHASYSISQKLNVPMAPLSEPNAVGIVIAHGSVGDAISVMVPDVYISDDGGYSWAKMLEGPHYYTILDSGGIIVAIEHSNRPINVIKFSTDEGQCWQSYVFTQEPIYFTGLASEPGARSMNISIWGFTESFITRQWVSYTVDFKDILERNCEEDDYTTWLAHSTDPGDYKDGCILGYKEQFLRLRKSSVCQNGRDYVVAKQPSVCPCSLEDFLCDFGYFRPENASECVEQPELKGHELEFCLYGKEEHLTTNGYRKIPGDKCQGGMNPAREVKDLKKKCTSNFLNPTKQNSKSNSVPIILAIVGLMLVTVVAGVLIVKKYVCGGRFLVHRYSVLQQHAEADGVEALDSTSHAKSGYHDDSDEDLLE
UniProt A0A4D6IX63: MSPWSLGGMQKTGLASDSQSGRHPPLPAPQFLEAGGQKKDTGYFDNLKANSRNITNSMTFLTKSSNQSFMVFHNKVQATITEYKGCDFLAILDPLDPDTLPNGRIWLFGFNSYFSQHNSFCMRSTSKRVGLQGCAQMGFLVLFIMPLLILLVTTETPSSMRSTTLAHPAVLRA
GST-fused RPS23RG1 extracellular fragment (RPS23RG1 aa 1-131): residues 1-131 of A0A4D6IX63
Myc-RPS23RG1-Δ103-128 (A0A4D6IX63, form named): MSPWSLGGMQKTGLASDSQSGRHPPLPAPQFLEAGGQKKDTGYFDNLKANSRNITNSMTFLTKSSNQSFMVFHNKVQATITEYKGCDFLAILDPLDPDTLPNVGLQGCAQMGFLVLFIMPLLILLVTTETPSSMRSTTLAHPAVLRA
Myc-RPS23RG1-Δ57-67 (A0A4D6IX63, form named): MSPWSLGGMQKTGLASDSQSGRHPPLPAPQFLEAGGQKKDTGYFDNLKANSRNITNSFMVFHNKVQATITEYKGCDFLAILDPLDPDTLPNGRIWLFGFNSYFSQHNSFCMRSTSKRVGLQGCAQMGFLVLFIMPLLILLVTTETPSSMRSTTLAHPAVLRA

[2] = target: T2, MDGA2 (endogenous, mouse brain) (mouse (endogenous in mouse brain)) (UniProt P60755); assay: co-IP; protein lysates from 1.5-month-old WT (and Rps23rg1 KO) mouse brain; IP with IgG and antibodies against SORT1 or MDGA2; immunoblotting
T2 sequence: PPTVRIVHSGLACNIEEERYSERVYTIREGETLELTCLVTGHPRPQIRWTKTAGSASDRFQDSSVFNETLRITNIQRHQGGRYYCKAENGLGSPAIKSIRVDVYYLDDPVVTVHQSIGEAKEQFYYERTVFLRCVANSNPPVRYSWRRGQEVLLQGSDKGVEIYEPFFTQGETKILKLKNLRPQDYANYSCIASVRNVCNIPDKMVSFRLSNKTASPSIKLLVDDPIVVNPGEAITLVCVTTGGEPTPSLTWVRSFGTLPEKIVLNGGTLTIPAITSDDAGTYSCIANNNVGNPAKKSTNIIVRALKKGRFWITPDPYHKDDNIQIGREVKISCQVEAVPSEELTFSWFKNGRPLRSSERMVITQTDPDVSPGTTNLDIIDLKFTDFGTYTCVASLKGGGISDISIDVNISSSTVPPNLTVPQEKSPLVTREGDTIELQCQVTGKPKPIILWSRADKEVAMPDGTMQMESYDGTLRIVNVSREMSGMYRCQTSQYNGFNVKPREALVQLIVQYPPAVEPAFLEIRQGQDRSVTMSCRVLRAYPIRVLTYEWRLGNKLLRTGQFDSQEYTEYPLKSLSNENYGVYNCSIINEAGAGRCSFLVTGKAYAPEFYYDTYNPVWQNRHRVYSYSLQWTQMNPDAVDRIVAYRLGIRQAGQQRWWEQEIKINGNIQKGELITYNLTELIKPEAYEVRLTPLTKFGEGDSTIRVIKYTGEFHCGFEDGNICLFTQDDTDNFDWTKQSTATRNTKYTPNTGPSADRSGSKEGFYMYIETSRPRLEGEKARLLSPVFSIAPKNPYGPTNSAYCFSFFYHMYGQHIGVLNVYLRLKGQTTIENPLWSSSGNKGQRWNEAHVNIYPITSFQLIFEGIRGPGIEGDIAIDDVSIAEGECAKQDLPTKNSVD

[3] = target: T1, MDGA2-GFP (full-length human MDGA2 in pEGFP-N1) (human); assay: co-IP; exogenous MDGA2 and endogenous SORT1 (Figure S4A); cells and antibody not given
[4] = target: SORT1 (endogenous, HEK293T cells) (human (endogenous in HEK293T)) (UniProt Q99523); assay: co-IP; HEK293T cells co-transfected with MDGA2-GFP and Myc-tagged full-length RR1 or Δ103-128; IP with antibodies against GFP or SORT1; immunoblotting
[5] = target: Myc-RPS23RG1 (full-length human RPS23RG1) (human); assay: co-IP; HEK293T cells co-transfected with MDGA2-GFP and Myc-tagged RPS23RG1 constructs; IP with IgG and antibodies against GFP or Myc; immunoblotting
[6] = target: T3, P2 peptide, biotin-labeled (RPS23RG1 aa 112-126) (human); assay: pull-down; HeLa cells incubated with biotin-labeled P1 or P2 peptide (100 nM) for 16 h; cell lysates incubated with avidin beads; immunoblot for MDGA2; only the target purified
T3 sequence (peptide, biotin at the amino terminus, bridged with a GGG linker): GGGSYFSQHNSFCMRSTS

[7] = target: T4, P1 peptide, biotin-labeled (RPS23RG1 aa 103-109) (human); assay: as above
T4 sequence (peptide, biotin at the amino terminus, bridged with a GGG linker): GGGGRIWLFG

[8] = target: SORT1 (endogenous, mouse brain) (mouse (endogenous in mouse brain)) (UniProt Q6PHU5); assay: co-IP; protein lysates from 1.5-month-old WT (and Rps23rg1 KO) mouse brain; IP with IgG and antibodies against SORT1 or MDGA2; immunoblotting
[9] = target: GST-fused RPS23RG1 extracellular fragment (RPS23RG1 aa 1-131) (human); assay: pull-down; GST-RR1-ED incubated with synaptosome lysates, pull-down with glutathione Sepharose 4B, SDS-PAGE and immunoblotting; only the target purified
[10] = target: T3, P2 peptide, biotin-labeled (RPS23RG1 aa 112-126) (human); assay: pull-down; biotin-labeled peptides injected intravenously in mice for 5 days (10 mg/kg/d); brain lysates precipitated with avidin beads; immunoblot for MDGA2; only the target purified

- binding [2]: binds
Molecule: SORT1 (endogenous, mouse brain) (from UniProt Q6PHU5 74-825)

- binding [1]: binds
Molecule: Myc-RPS23RG1-Δ57-67 (from UniProt A0A4D6IX63 1-173)

- binding [6]: binds
- binding [7]: no binding (tested: 100 nM)
B2: MDGA2 (endogenous, HeLa cells) (protein, UniProt Q7Z553 26-931)
chain: T1 sequence

More lines, now with the values behind:

Molecule: Myc-RPS23RG1-Δ103-128 (from UniProt A0A4D6IX63 1-173)
- binding [1]: no binding

Molecule: Myc-RPS23RG1 (full-length human RPS23RG1) (from UniProt A0A4D6IX63 1-173)
- binding [1]: binds

Molecule: SORT1 (endogenous, HEK293T cells) (from UniProt Q99523 78-831)
- binding [3]: binds

B1: MDGA2-GFP (full-length human MDGA2 in pEGFP-N1) (protein, UniProt Q7Z553 26-931)
chain: T1 sequence
- binding [4]: binds
- binding [5]: binds

B3: MDGA2 (endogenous, mouse brain) (protein, UniProt P60755 26-924)
chain: T2 sequence
- binding [8]: binds
- binding [9]: binds
- binding [10]: binds
